Laboratory results as given in the supplement of paper PMC10126150.
Values marked as one replicate rest on one cluster of the flow cell; about a third of the high ones do not repeat.
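Further: ATP exposure 15 min at 22 °C before imaging.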

These sequences were tested on ATP (assay: switch fluorescence ratio, 500 uM ATP over buffer (Cy3 cluster intensity, sum of 5 cycles each) (fold (ratio)); higher = stronger signal-on switching upon ATP binding; sequences stand for … in TCGTCGGCAGCGTCAGATGTGTATAAGAGACAGTTTTTTTTTTTTTTTTTTTTTTTTT…TC). Details: aptamer strand: ATP DNA aptamer (quencher-CACCTGGGGGAGTATTGCGGAGGAAGG + anchor), 100 nM annealed; ATP concentration: 500 uM; one replicate.
Procedure, shortened: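 Cy3-labelled switching-strand clusters on a modified Illumina MiSeq flow-cell were annealed to 100 nM quencher-labelled ATP aptamer and imaged first in selection buffer, then after 15 min with 500 uM ATP at 22 °C. NaOH stripping and re-annealing separated each of five buffer/ATP cycles, and clusters outside 100-1000 RFU were excluded. The fluorescence ratio sums target-cycle Cy3 intensity over buffer-cycle Cy3 intensity per cluster and averages it per switch-domain sequence.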
AGCAGGCTGG showed a switch fluorescence ratio of 0.995. AGCAGGGTCT gave a switch fluorescence ratio of 0.984. With AGCAGGTAAC the switch fluorescence ratio was 1.16. For AGCAGTACCA, the switch fluorescence ratio was 1.22. With AGCAGTACGG the switch fluorescence ratio was 2.06. Work on AGCAGTCGTC yielded a switch fluorescence ratio of 1.06. Sequence AGCATAAAGA has a switch fluorescence ratio of 1.03. Sequence AGCATAACAG has a switch fluorescence ratio of 1.05. With AGCATCGGA the switch fluorescence ratio was 0.953. With AGCATGCTTG the switch fluorescence ratio was 0.979. For AGCATGGGGT, the switch fluorescence ratio was 1. In the case of AGCATGTCTT, the switch fluorescence ratio is reported as 1. In the case of AGCATTCTAC, the switch fluorescence ratio is reported as 2.02. For AGCCAATTC, the switch fluorescence ratio was 1.24. Work on AGCCACGCTA yielded a switch fluorescence ratio of 1.03. For AGCCACTCGC, the switch fluorescence ratio was 1.06. Work on AGCCATGTAA yielded a switch fluorescence ratio of 1.01. In the case of AGCCATTCG, the switch fluorescence ratio is reported as 0.935. Sequence AGCCCACCGC has a switch fluorescence ratio of 1.17. AGCCCGAGGT gave a switch fluorescence ratio of 1.03. With AGCCCGATGG the switch fluorescence ratio was 1.01. Work on AGCCCGGGCT yielded a switch fluorescence ratio of 0.984. Sequence AGCCCTGGGT has a switch fluorescence ratio of 0.978. Sequence AGCCGAGAGG has a switch fluorescence ratio of 0.988. In the case of AGCCGCATCA, the switch fluorescence ratio is reported as 0.951. In the case of AGCCGCATTT, the switch fluorescence ratio is reported as 1.38. With AGCCGGACAC the switch fluorescence ratio was 1.07. In the case of AGCCGGACGG, the switch fluorescence ratio is reported as 1.01. With AGCCGGAGAG the switch fluorescence ratio was 0.992. In the case of AGCCGGGTCA, the switch fluorescence ratio is reported as 1.07. In the case of AGCCTCTAAC, the switch fluorescence ratio is reported as 0.996. AGCCTGACG showed a switch fluorescence ratio of 1.09. AGCCTGAGTA was tested, and the switch fluorescence ratio was 0.941. Work on AGCCTGCACT yielded a switch fluorescence ratio of 1.05. Sequence AGCCTGCAGG has a switch fluorescence ratio of 0.979. In the case of AGCCTTGGAC, the switch fluorescence ratio is reported as 0.991. AGCCTTGTGG gave a switch fluorescence ratio of 0.991. Work on AGCCTTGTTA yielded a switch fluorescence ratio of 1.05. For AGCGAACTTC, the switch fluorescence ratio was 1.04. Work on AGCGAAGCGT yielded a switch fluorescence ratio of 1.06. Sequence AGCGAAGGGT has a switch fluorescence ratio of 0.957. Work on AGCGACCTCT yielded a switch fluorescence ratio of 1.04. Work on AGCGACGAAC yielded a switch fluorescence ratio of 1.46. For AGCGACTGAC, the switch fluorescence ratio was 1.35. Work on AGCGAGGTTC yielded a switch fluorescence ratio of 1.02. Sequence AGCGCCCATA has a switch fluorescence ratio of 1.02. Work on AGCGCCCATG yielded a switch fluorescence ratio of 1.01. Sequence AGCGCGTATG has a switch fluorescence ratio of 1.04. For AGCGCGTTCA, the switch fluorescence ratio was 0.978. Sequence AGCGCTCCAA has a switch fluorescence ratio of 1.07. With AGCGGACTAA the switch fluorescence ratio was 1.01. Work on AGCGGATCCG yielded a switch fluorescence ratio of 0.999. AGCGGCTTCT was tested, and the switch fluorescence ratio was 1.01. AGCGGGGTA was tested, and the switch fluorescence ratio was 0.957. In the case of AGCGGGTG, the switch fluorescence ratio is reported as 1.03. In the case of AGCGGTAATC, the switch fluorescence ratio is reported as 1.03. AGCGGTTGTC showed a switch fluorescence ratio of 0.999. AGCGTACGTC was tested, and the switch fluorescence ratio was 0.97. For AGCGTCCCCA, the switch fluorescence ratio was 1.03. With AGCGTGGGGC the switch fluorescence ratio was 1.05. Work on AGCGTTATTA yielded a switch fluorescence ratio of 1. With AGCTAAGTCG the switch fluorescence ratio was 0.995. AGCTACGCTA showed a switch fluorescence ratio of 0.99. AGCTACTGTA was tested, and the switch fluorescence ratio was 1.16. AGCTAGGTCG gave a switch fluorescence ratio of 1.13. Work on AGCTATTCTG yielded a switch fluorescence ratio of 0.99. AGCTCAACGT showed a switch fluorescence ratio of 0.981. AGCTCGCTGC showed a switch fluorescence ratio of 0.972. AGCTCGTGAG gave a switch fluorescence ratio of 0.982. In the case of AGCTGAGGCG, the switch fluorescence ratio is reported as 0.971. AGCTGATGAT gave a switch fluorescence ratio of 0.993. Work on AGCTGCATGT yielded a switch fluorescence ratio of 0.979. Sequence AGCTGCCGCC has a switch fluorescence ratio of 1.01. AGCTGCCTCT showed a switch fluorescence ratio of 1.03. Sequence AGCTGCGACA has a switch fluorescence ratio of 1.02. In the case of AGCTGGGAAA, the switch fluorescence ratio is reported as 0.952. AGCTGGGTAT gave a switch fluorescence ratio of 1.03. Sequence AGCTTCAGGC has a switch fluorescence ratio of 1. AGCTTCCCAC was tested, and the switch fluorescence ratio was 1.47. AGCTTCTCAG gave a switch fluorescence ratio of 1.04. Work on AGCTTGCGAA yielded a switch fluorescence ratio of 1.05. AGCTTGTTAA was tested, and the switch fluorescence ratio was 0.986. With AGGAAAAAT the switch fluorescence ratio was 0.983. For AGGAAAATTG, the switch fluorescence ratio was 1.01. With AGGAAACACT the switch fluorescence ratio was 0.992. With AGGAAATAGA the switch fluorescence ratio was 0.989. Work on AGGAACCGGT yielded a switch fluorescence ratio of 1.04. AGGAACTTCG gave a switch fluorescence ratio of 1.01. With AGGAAGAGC the switch fluorescence ratio was 1.02. Work on AGGAATCACC yielded a switch fluorescence ratio of 0.982. Work on AGGAATTCAG yielded a switch fluorescence ratio of 0.972. In the case of AGGAATTCTC, the switch fluorescence ratio is reported as 1.04. AGGACAGAGT showed a switch fluorescence ratio of 0.955. For AGGACCGCTG, the switch fluorescence ratio was 1.03. In the case of AGGACGGGTC, the switch fluorescence ratio is reported as 0.952. AGGACTATTT showed a switch fluorescence ratio of 0.967. Sequence AGGACTCCAG has a switch fluorescence ratio of 1.01. In the case of AGGAGAACCC, the switch fluorescence ratio is reported as 1. AGGAGATCTG gave a switch fluorescence ratio of 0.987. In the case of AGGAGCGATT, the switch fluorescence ratio is reported as 1.07. AGGAGGTATA gave a switch fluorescence ratio of 1. Work on AGGAGTAAGT yielded a switch fluorescence ratio of 0.942. For AGGAGTGGAC, the switch fluorescence ratio was 0.974. With AGGATAACGT the switch fluorescence ratio was 0.975. AGGATAGAGC was tested, and the switch fluorescence ratio was 1.07. Sequence AGGATATCGA has a switch fluorescence ratio of 1. With AGGATCCGTG the switch fluorescence ratio was 0.999. For AGGATCTAAT, the switch fluorescence ratio was 0.971. With AGGATGAGCC the switch fluorescence ratio was 1.01. In the case of AGGATGAGTG, the switch fluorescence ratio is reported as 1.06. In the case of AGGATGCAAG, the switch fluorescence ratio is reported as 1.01. With AGGATGGCTT the switch fluorescence ratio was 1.03. With AGGATTATGG the switch fluorescence ratio was 1.01. AGGATTCAGA gave a switch fluorescence ratio of 0.985. Sequence AGGATTCAGC has a switch fluorescence ratio of 0.979. In the case of AGGCAAACGT, the switch fluorescence ratio is reported as 1.06. For AGGCAAAGCG, the switch fluorescence ratio was 1. In the case of AGGCAATAGG, the switch fluorescence ratio is reported as 1.04. Work on AGGCACTTGC yielded a switch fluorescence ratio of 1. With AGGCAGAAAG the switch fluorescence ratio was 1.01. Work on AGGCATCTCA yielded a switch fluorescence ratio of 0.997. AGGCATTACC gave a switch fluorescence ratio of 1.08. In the case of AGGCATTATT, the switch fluorescence ratio is reported as 0.998. AGGCATTCCC gave a switch fluorescence ratio of 1.06. In the case of AGGCATTG, the switch fluorescence ratio is reported as 0.995. AGGCATTTTT was tested, and the switch fluorescence ratio was 0.959. Sequence AGGCCACTCA has a switch fluorescence ratio of 1.05. In the case of AGGCCCATCG, the switch fluorescence ratio is reported as 1.04. AGGCCCGCTG was tested, and the switch fluorescence ratio was 1.02. For AGGCCCGTAC, the switch fluorescence ratio was 1.06. In the case of AGGCCGACAT, the switch fluorescence ratio is reported as 1. Sequence AGGCCGGAGT has a switch fluorescence ratio of 1.02. AGGCCTTCCG gave a switch fluorescence ratio of 1.89. With AGGCGAAATA the switch fluorescence ratio was 1.01. Work on AGGCGACAGG yielded a switch fluorescence ratio of 1. For AGGCGACCTC, the switch fluorescence ratio was 1.06. With AGGCGCGAA the switch fluorescence ratio was 1.02. In the case of AGGCGGAGAT, the switch fluorescence ratio is reported as 1.01. AGGCGGTCGG gave a switch fluorescence ratio of 0.998. With AGGCGTCATT the switch fluorescence ratio was 1.01. For AGGCTATCGC, the switch fluorescence ratio was 1.01. AGGCTATGTG gave a switch fluorescence ratio of 1.02. AGGCTCACGT showed a switch fluorescence ratio of 1.03. For AGGCTCAGAA, the switch fluorescence ratio was 1. Sequence AGGCTCAGCC has a switch fluorescence ratio of 0.962. AGGCTGCCCA showed a switch fluorescence ratio of 0.995. For AGGCTGGCAG, the switch fluorescence ratio was 0.955. With AGGCTGTGTG the switch fluorescence ratio was 0.993. AGGCTGTTGG showed a switch fluorescence ratio of 1.03. AGGCTTCAG was tested, and the switch fluorescence ratio was 1. In the case of AGGCTTGTTC, the switch fluorescence ratio is reported as 0.955. AGGGAACTTC gave a switch fluorescence ratio of 1. For AGGGAAGAGT, the switch fluorescence ratio was 0.961. In the case of AGGGAATACT, the switch fluorescence ratio is reported as 1.24. With AGGGACCTGG the switch fluorescence ratio was 1.1. Sequence AGGGAGACGC has a switch fluorescence ratio of 0.966. Work on AGGGAGTAA yielded a switch fluorescence ratio of 0.98. For AGGGAGTAGA, the switch fluorescence ratio was 0.988. Sequence AGGGAGTGGA has a switch fluorescence ratio of 1.02. For AGGGATCCAT, the switch fluorescence ratio was 1.02. Work on AGGGCAACTT yielded a switch fluorescence ratio of 1.09. AGGGCATATG gave a switch fluorescence ratio of 0.909. Work on AGGGCCTCTG yielded a switch fluorescence ratio of 1.04. In the case of AGGGCGGCAC, the switch fluorescence ratio is reported as 0.992. AGGGCTACAT was tested, and the switch fluorescence ratio was 0.991. AGGGCTGGAA was tested, and the switch fluorescence ratio was 0.99. AGGGGATATA was tested, and the switch fluorescence ratio was 0.983. AGGGGATCGA was tested, and the switch fluorescence ratio was 1. AGGGGATCTC was tested, and the switch fluorescence ratio was 1.03. With AGGGGATGGA the switch fluorescence ratio was 1.04. With AGGGGATTAG the switch fluorescence ratio was 1.17. AGGGGCGGAC showed a switch fluorescence ratio of 0.974. Sequence AGGGGCGTCT has a switch fluorescence ratio of 1.01. AGGGGCTCTA showed a switch fluorescence ratio of 1.02. For AGGGGTCAAG, the switch fluorescence ratio was 0.97. Work on AGGGGTCAC yielded a switch fluorescence ratio of 1.01. AGGGGTGAAG gave a switch fluorescence ratio of 1.01. For AGGGGTGTAC, the switch fluorescence ratio was 1. AGGGGTT was tested, and the switch fluorescence ratio was 1.02. AGGGTACCA showed a switch fluorescence ratio of 1.02. AGGGTACTGG was tested, and the switch fluorescence ratio was 1.01. AGGGTATAAC showed a switch fluorescence ratio of 0.963. AGGGTCATAA showed a switch fluorescence ratio of 0.988. Sequence AGGGTCCGTG has a switch fluorescence ratio of 0.972. Sequence AGGGTCTTAT has a switch fluorescence ratio of 1.01. AGGGTCTTTG gave a switch fluorescence ratio of 0.989. Work on AGGGTGCTTG yielded a switch fluorescence ratio of 1. For AGGGTGTGAG, the switch fluorescence ratio was 1.01. AGGGTGTTTC gave a switch fluorescence ratio of 0.993. For AGGGTTACAA, the switch fluorescence ratio was 1.02. In the case of AGGGTTCGCT, the switch fluorescence ratio is reported as 1.02. AGGGTTCGTT showed a switch fluorescence ratio of 1.01. AGGGTTTGTC showed a switch fluorescence ratio of 0.982. In the case of AGGTAAGAAA, the switch fluorescence ratio is reported as 1.01. Work on AGGTAATTGT yielded a switch fluorescence ratio of 0.982. AGGTACCTAA gave a switch fluorescence ratio of 1.01. In the case of AGGTACTTCG, the switch fluorescence ratio is reported as 1.04. AGGTAGTTGG gave a switch fluorescence ratio of 1. Sequence AGGTATACAG has a switch fluorescence ratio of 1. For AGGTCAACTC, the switch fluorescence ratio was 1.01.
